From PMC4336329 (PLoS ONE, 2015) come the findings set out here.

Structures are written as SMILES. Hit rate of the full screen: of about 310,000 compounds, about 2,200 (0.71%) showed an effect of 50% or more. Effects have a minus sign here. This is one part of the list.

For this assay, the target named is human ether-à-go-go-related gene (hERG) potassium channel (human, UniProt Q12809). The assay is described as follows: primary screen, population patch clamp on CHO cells stably expressing hERG.
Sequence of human ether-à-go-go-related gene (hERG) potassium channel (Q12809 whole entry, looked up): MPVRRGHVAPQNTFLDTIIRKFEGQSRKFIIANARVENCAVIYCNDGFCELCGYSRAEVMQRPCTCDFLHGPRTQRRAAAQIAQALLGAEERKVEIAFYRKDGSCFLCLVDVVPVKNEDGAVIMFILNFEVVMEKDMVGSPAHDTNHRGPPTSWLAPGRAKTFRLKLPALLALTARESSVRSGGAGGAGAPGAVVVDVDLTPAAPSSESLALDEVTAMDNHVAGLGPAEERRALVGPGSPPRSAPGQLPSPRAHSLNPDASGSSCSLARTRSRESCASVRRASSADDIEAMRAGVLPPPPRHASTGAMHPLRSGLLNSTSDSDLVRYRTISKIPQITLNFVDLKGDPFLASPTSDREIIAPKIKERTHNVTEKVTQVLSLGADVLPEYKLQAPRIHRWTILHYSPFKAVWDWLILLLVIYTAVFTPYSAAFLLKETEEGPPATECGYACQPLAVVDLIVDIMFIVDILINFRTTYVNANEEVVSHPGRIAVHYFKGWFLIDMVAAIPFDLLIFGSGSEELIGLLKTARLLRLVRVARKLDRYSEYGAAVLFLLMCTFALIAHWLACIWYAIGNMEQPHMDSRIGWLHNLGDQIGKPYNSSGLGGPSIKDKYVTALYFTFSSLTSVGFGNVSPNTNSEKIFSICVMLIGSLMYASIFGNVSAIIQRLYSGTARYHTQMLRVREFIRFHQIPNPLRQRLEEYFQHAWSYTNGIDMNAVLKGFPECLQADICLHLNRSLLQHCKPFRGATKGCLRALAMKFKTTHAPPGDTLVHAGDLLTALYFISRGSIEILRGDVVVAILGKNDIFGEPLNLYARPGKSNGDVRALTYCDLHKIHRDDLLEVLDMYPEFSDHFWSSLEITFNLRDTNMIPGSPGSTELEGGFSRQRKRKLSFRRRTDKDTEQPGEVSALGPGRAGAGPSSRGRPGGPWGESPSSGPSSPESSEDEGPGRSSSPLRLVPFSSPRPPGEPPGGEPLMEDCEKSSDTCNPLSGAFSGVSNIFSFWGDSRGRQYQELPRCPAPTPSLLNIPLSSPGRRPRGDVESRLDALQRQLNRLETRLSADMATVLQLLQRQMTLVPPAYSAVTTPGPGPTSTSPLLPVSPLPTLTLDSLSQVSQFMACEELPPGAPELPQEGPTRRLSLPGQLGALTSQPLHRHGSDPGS
In the case of `O=C1CC(NN2CCCCC2)C(=O)N1c1ccccc1` (centres unmarked), the “hERG current change (%, negative = inhibition) at 1uM” value is on record as 9.34%.
Take `COc1cccc(-n2c(-c3ccccc3)c[nH]c2=S)c1`: the “hERG current change (%, negative = inhibition) at 1uM” value is recorded as 13.1%.
As to `O=C(CSCc1nc2ccccc2[nH]1)N1CCN(c2cccc(Cl)c2)CC1`, the “hERG current change (%, negative = inhibition) at 1uM” value came out at 1.28%.
On to `Cc1nc2nc(C)c(NS(=O)(=O)c3ccc(Cl)s3)c(=O)n2[nH]1`, for which the “hERG current change (%, negative = inhibition) at 1uM” value was 9.5%.
Regarding `O=C1CC(=O)N(c2cccc(Cl)c2)C(=O)N1`, the “hERG current change (%, negative = inhibition) at 1uM” value was determined as 12.8%.
In the case of `CC(C)C(=O)Nc1nnc(CCN2CCCCC2)s1` it was 3.78%; in that of `COc1cccc(-n2cc(CN(C)Cc3nc(Cc4ccccc4)no3)cn2)c1`, -14.2%; in that of `COc1ccc(-c2cc(=O)oc3c(C)c(OCC(=O)NCCCn4ccnc4)ccc23)cc1`, -8.49%.
In the case of `C[C@H](NC(=O)OCc1ccccc1)C(=O)NNC(=O)[C@H](Cc1ccccc1)NC(=O)OC(C)(C)C`, the “hERG current change (%, negative = inhibition) at 1uM” value is on record as 17.1%.
Turning to `CCN(CC)C(=O)N1CCC(NC(=O)c2ccccc2)CC1`, the “hERG current change (%, negative = inhibition) at 1uM” value is listed as 7.42%.
In the case of `COc1ccc(-n2nc(C(=O)NCC(=O)NCCCN3CCOCC3)c3ccccc3c2=O)c(OC)c1`, the “hERG current change (%, negative = inhibition) at 1uM” value was determined as 19.7%.
The value for `Cc1ccc2[nH]c3c(=O)n(CC(=O)N4CC(C)CC(C)C4)ncc3c2c1` (centres unmarked) was 9.13%; that for `Cc1ccc(C(=O)N/C(=C\c2ccc(F)cc2)C(=O)NCCCn2ccnc2)cc1` was -85.1%.
In the case of `NC(=O)c1ccsc1NC(=O)COC(=O)c1ccccn1` it was 3.79%; in that of `CC1CCN(CCCNC(=O)CCNC(=O)Cn2cnc3ccccc3c2=O)CC1`, 16.6%.
On to `O=C(CC1C(=O)NCCN1Cc1c(F)cccc1Cl)NCCC1=CCCCC1` (centres unmarked), for which the “hERG current change (%, negative = inhibition) at 1uM” value came to 1.36%.
In the case of `COc1cc(-c2c(-c3cccc(C)c3)oc3ccccc23)cc(OC)c1OC` it was 17%; in that of `COc1ccc(N2C(=O)C(Cl)=C(Nc3ccccc3OC)C2=O)cc1`, 2.56%; in that of `Cc1ccc(NC(=O)c2ccc(F)c(S(=O)(=O)N3CCOCC3)c2)cc1F`, -1.44%.
For `Cc1cccc(COCC(Cc2ccccc2)N2CCN(C(=O)c3ccc(Cl)c(Cl)c3)CCC2=O)c1` (centres unmarked), the “hERG current change (%, negative = inhibition) at 1uM” value was -4.09%.
As to `CC(=O)c1c(C(C)=O)c(C)n(-c2nc(-c3ccccc3)c(C)s2)c1C`, the “hERG current change (%, negative = inhibition) at 1uM” value was found to be 5.27%.
The value for `O=C(CSc1ccc2nnc(-c3ccccn3)n2n1)N1CCOCC1` was 6.32%; that for `COC(=O)c1c(-c2ccccc2)c[nH]c1C` was 12.3%.
The value for `CCn1c(C)nc2cc(C(=O)OCCC(F)(F)F)ccc21` was -3.16%.
For `CCC(C)NC(=O)CSC1=Nc2ccccc2C2=NC(CC(=O)NCc3ccc(F)cc3)C(=O)N12` (centres unmarked), the “hERG current change (%, negative = inhibition) at 1uM” value is on record as -2.33%.
In the case of `O=C1NC2(CCCCC2)C(=O)N1Cc1cccc(C(F)(F)F)c1`, the “hERG current change (%, negative = inhibition) at 1uM” value was 4.55%.
In the case of `COc1cc(C(=O)Nc2cccc(-c3nncn3C)c2)cc(OC)c1OC` it was -5.98%; in that of `COc1ccc2occ(C(=O)c3ccccc3)c2c1`, -1.31%; in that of `Cc1ncoc1C(=O)N1CCCC(C(=O)c2ccc3c4c(cccc24)CC3)C1` (centres unmarked), -1.71%.
`COc1ccccc1CNc1nc2ccccc2n1CCN1CCCCC1`: the “hERG current change (%, negative = inhibition) at 1uM” value is listed as -29.9%.
With `O=C(Nc1cccnc1Cl)c1ccc(Cl)cc1`, the “hERG current change (%, negative = inhibition) at 1uM” value is recorded as 13.4%.
In the case of `COc1ccc(N2CCCC2)c(NC(=O)c2ccc(Br)o2)c1`, the “hERG current change (%, negative = inhibition) at 1uM” value amounted to 12.3%.
In the case of `COc1ccc(Nc2nnc(Cc3ccc(Cl)cc3)c(=O)[nH]2)c(OC)c1` it was 16%; in that of `O=C(CCCC(=O)OCC(F)(F)C(F)F)Nc1ccccc1F`, 6.24%.
In the case of `COc1ccc(C(=O)C(CCC(CNC(C)(C)C)C(=O)c2ccc(OC)cc2)CNC(C)(C)C)cc1.Cl` (centres unmarked) it was -0.112%; in that of `COc1ccccc1C(=O)NC1CCSc2ccccc21` (centres unmarked), 11.4%; in that of `Cc1ccc(C)c(N2CCN(C(=O)c3ccc4c(c3)c(C)c(C)n4C)CC2)c1`, 9.85%.
In the case of `CCN1CCCC1CNC(=O)c1cc2cc(F)ccc2[nH]1` (centres unmarked) it was -53.8%.
`c1ccc(COc2ccc(-c3csnn3)cc2)cc1`: the “hERG current change (%, negative = inhibition) at 1uM” value was 12.5%.
In the case of `CC(Sc1ccc([N+](=O)[O-])cn1)C(=O)Nc1nccs1` (centres unmarked) it was 10.6%; in that of `C[C@@H]1C=CC(=O)O[C@@H]1c1ccc(C(F)(F)F)cc1`, 3.58%; in that of `Cn1cccc1C(=O)C(=O)Nc1cccc(Cl)c1Cl`, 13.8%.
The value for `COc1ccc(N2CCN(C(=O)COC(=O)c3ccc(-n4nc(C)cc4C)cc3)CC2)cc1` was 3.11%; that for `Nn1c(CSc2nc3ccccc3o2)nnc1CSc1nc2ccccc2o1` was 13.7%; that for `COc1cccc(-c2cc(C(=O)N3CCN(C(c4ccccc4)c4ccccc4)CC3)no2)c1` was 12.5%.
`Cc1ccccc1CSCCNC(=O)CSCc1ccc([N+](=O)[O-])cc1`: the “hERG current change (%, negative = inhibition) at 1uM” value is recorded as -7.7%.
The value for `OC[C@H]1O[C@@H](n2cnc3c(Nc4ccccc4)ncnc32)[C@H](O)[C@@H]1O` was 7.74%; that for `O=C(CSC1=NCCS1)Nc1nc2ccccc2s1` was -0.0242%; that for `CCc1ccc(NC(=O)Cn2c(SC)nc3ccccc32)cc1` was 10.1%.
In the case of `Cc1csc(Sc2ccc([N+](=O)[O-])cc2C(=O)OCC(=O)NC2CCCC(C)C2C)n1` (centres unmarked) it was -8.58%.
In the case of `CN(CP(=O)(O)CN(C)S(C)(=O)=O)S(C)(=O)=O` it was 3.77%; in that of `CCOCCCNC(=S)N1CCN(C(=O)C(=O)Nc2ccc(C(=O)OC)cc2)CC1`, -12%; in that of `Cc1cc(/C=C2\C(=O)NC(=O)N(Cc3ccco3)C2=O)c(C)n1-c1ccc(C(=O)O)cc1`, 13.8%.
For `CC(C)C[C@@H](CO)N1CCN(Cc2ccccc2)CCC1=O`, the “hERG current change (%, negative = inhibition) at 1uM” value is on record as 9.54%.
In the case of `COc1cc2c(cc1OC)C(NNC(=O)c1ccc(Br)o1)=NC(C)(C)C2` it was 16.9%.
The value for `CC(C)C(NS(=O)(=O)c1ccccc1)C(=O)N1CCCCCC1` (centres unmarked) was 18.1%; that for `COCC(=O)N1CCC(Oc2cccc(C(=O)NCc3ccccn3)c2)CC1` was 14.8%.
As to `COc1ccc(N(C(=O)c2snc(C(N)=O)c2N)C(C(=O)NC2CCCC2)c2ccc(C)o2)c(OC)c1` (centres unmarked), the “hERG current change (%, negative = inhibition) at 1uM” value worked out at 11%.
In the case of `CCOc1ccccc1N(CC(=O)NC(C)(C)C)C(=O)c1ccc(CN2CCOCC2)o1` it was 13.7%.
Take `COc1ccc(-n2c(SC(C)C(=O)Nc3ccc(NC(C)=O)cc3)nc3ccccc3c2=O)cc1OC` (centres unmarked): the “hERG current change (%, negative = inhibition) at 1uM” value amounted to 14.1%.
In the case of `CCN(CC)CCNC(=O)c1ccc(NC(=O)/C=C/c2ccc3ccccc3n2)cc1` it was 8.45%; in that of `O=C(N/N=C1/CCc2ccccc21)C1CC1`, 6.47%.
In the case of `O=C(CCl)N1c2ccccc2OCC1c1ccccc1` (centres unmarked) it was 3.86%.
As for `CCOc1ccc(CCNC(=O)COC(=O)c2cccs2)cc1OCC`, the “hERG current change (%, negative = inhibition) at 1uM” value is on record as -17.3%.
Turning to `O=C(Oc1ccc(-c2csnn2)cc1)C1CC1`, the “hERG current change (%, negative = inhibition) at 1uM” value turned out to be 9.89%.
In the case of `O=C(COc1ccc(Cl)cc1)Nc1ccc2c(c1)nc1n2CCOC1` it was -18.4%; in that of `N#Cc1ccccc1COC(=O)c1cc(=O)c2ccccc2o1`, 15.5%.
The value for `CC1(C)SC(=S)N(/N=C/c2cccnc2)C1N(O)C(=O)Nc1ccccc1` (centres unmarked) was -1.2%; that for `CC1CCc2c(sc(NC(=O)CSc3nc4c(c(C(F)(F)F)n3)CCc3ccccc3-4)c2C(N)=O)C1` (centres unmarked) was 20.1%.
As to `CCOC(=O)c1nn(-c2ccc(C)cc2)c(=O)cc1OCC(=O)Nc1cccc(C)c1`, the “hERG current change (%, negative = inhibition) at 1uM” value was determined as 15.3%.
The value for `CN(CCC1CCOCC1)C(=O)C1CCC(=O)N(CCc2ccc(Cl)cc2)C1` (centres unmarked) was -25.2%; that for `Cc1c2ccncc2c(C)c2c1[nH]c1ccccc12` was 8.35%; that for `CON(C)c1nc(Oc2ccc(=O)[nH]n2)nc(N(C)C)n1` was -3.26%.
For the compound `CN(C(=O)COC(=O)C1CCN(S(=O)(=O)c2cccs2)CC1)C1CCS(=O)(=O)C1` (centres unmarked), the “hERG current change (%, negative = inhibition) at 1uM” value is 1.96%.
`COc1ccc(Cc2nc(C(=O)Nc3ccc(OC)cc3)cs2)cc1`: the “hERG current change (%, negative = inhibition) at 1uM” value stood at 11.5%.
Regarding `CCOC(=O)Cn1c(=O)c(-c2ccccc2N)nc2ccccc21`, the “hERG current change (%, negative = inhibition) at 1uM” value was determined as 11.2%.
In the case of `CCc1cccc(NC(=S)Nc2ccc(CN3CCOCC3)cc2)c1` it was 9.4%.
The value for `CCc1nnc(NC(=O)CSc2ncc(-c3ccccc3)[nH]2)s1` was -3.47%; that for `Cn1c(COc2ccccc2)nnc1SCC(=O)NC1CCCC1` was 7.08%; that for `CC1CCCN(C(=O)CSc2nnc3n(C4CCCC4)c(=O)c4ccccc4n23)C1` (centres unmarked) was -0.92%.
In the case of `CCCCN(CCCC)/C(N)=N/c1nc(C)cc(C)n1` it was -51.8%; in that of `C=CCNc1sc(C(=O)c2ccc(Br)s2)c(N)c1C#N`, 11.7%.
As to `Cc1sc2c(c1C)C(O)=C(C(=O)Nc1ccccc1)S(=O)(=O)N2C`, the “hERG current change (%, negative = inhibition) at 1uM” value came to 2.62%.
As for `CC(=O)Nc1ccc(-c2nnc(SCC(=O)NCc3ccco3)n2C)cc1`, the “hERG current change (%, negative = inhibition) at 1uM” value is recorded as 13.6%.
Take `Cc1c(/C=N/NC(=O)c2cc(C(C)(C)C)[nH]n2)c2ccccc2n1C`: the “hERG current change (%, negative = inhibition) at 1uM” value was 8.94%.
In the case of `O=C(COc1ccccc1F)NCc1nc2ccccc2[nH]1` it was 0.802%; in that of `COc1ccc(NC(=O)c2c(C)oc3c2CCCC3)cc1`, 10.5%; in that of `CCOC(=O)CCNC(=O)c1ccccc1Br`, 6.92%.
With `COc1cccc(C(=O)Nc2nnc(-c3cccs3)s2)c1`, the “hERG current change (%, negative = inhibition) at 1uM” value is 8.2%.
